Reference: PubChem BioAssay AID1508642 (National Center for Advancing Translational Sciences (NCATS), 2021)
Out of some 43,000 compounds screened, about 200 (0.47%) were called active. Roughly 12% stayed inconclusive and do not appear here. The call rests on the fitted dose curve; in most records, active means well fitted cell-killing curve with a large enough effect; inconclusive means small, poorly fitted or top-dose-only effect, or effect the other way; inactive means flat fitted curve, though single readings scatter. The list shows a part of the results.

experiment: Cell viability qHTS assay in S16 Pmp22-F2sN cells; conditions: S16 Pmp22-F2sN Schwann cells viability, CellTiter-Glo, 24 h; series mostly up to 57.5 µM; activity change, negative = cytotoxicity: at the top concentration; further: nearly all actives have a fitted effect of over 65% in size
In short: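 Viability was measured by CellTiter-Glo luminescence (15 min, room temperature). This followed 24 h at 37 °C of compound exposure (23 nL pin transfer) in S16 Pmp22-F2sN Schwann cells, 500-1,000 per well.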
On the % scale 0 is the no-effect control and ±100 the full control effect; potency means the concentration at half of the fitted maximal effect.

| SMILES | activity change, negative = cytotoxicity | Potency |
| --- | --- | --- |
| CCCCn1nc(NC(=O)c2cccc(Cl)c2)c2cc3cccc(C)c3nc21 | inactive: 6.54% | – |
| Cc1ccc(C(=O)c2cn(CC(=O)NCc3ccccc3Cl)c3nc(C)ccc3c2=O)cc1 | inactive: -13.1% | – |
| CCCC(=O)NC(C)c1nc2ccccc2n1Cc1ccccc1 (stereo not drawn) | inactive: 1.74% | – |
| CCOC(=O)c1c(C)[nH]c(C)c1S(=O)(=O)N1CCCC(C(=O)NCc2cccc(OC)c2)C1 (stereo not drawn) | inactive: -1.45% | – |
| Cc1cc(C(=O)N2CCN(c3cccc(C)c3C)CC2)c2c(C)nn(-c3ccccc3)c2n1 | inactive: -6.23% | – |
| CCOC(=O)c1sc(NC(=O)C2c3ccccc3Oc3ccccc32)c(C#N)c1C | inactive: -1.7% | – |
| COc1cccc(-c2ccc3c(N)c(C(=O)Nc4cc(C(F)(F)F)ccc4OC)sc3n2)c1 | inactive: -7.11% | – |
| Cc1c(C(=O)N(C)C)sc2c1c(=O)n(-c1ccc(Cl)cc1)c(=O)n2Cc1ccccc1F | inactive: 1.46% | – |
| Cc1cccc(OCC(=O)Nc2cc(-c3ccccc3F)nn2-c2ccccc2)c1 | inactive: -1.63% | – |
| COc1ccccc1CNC(=O)CCC1N=C2c3ccccc3N=C(SCC(=O)Nc3ccc(N(C)C)cc3)N2C1=O (stereo not drawn) | inactive: -21% | – |
| CCOC(=O)c1cc(-c2ccc(OC)cc2)n(CCC(=O)NCc2ccc(OC)cc2)c1C | inactive: -23% | – |
| CC(C)NC(=O)N1CCN(S(=O)(=O)c2ccc3c(ccn3C)c2)CC1 | inactive: 0.226% | – |
| Cc1ccc(C)c(NC(=O)CN(C)S(=O)(=O)c2ccc3c(c2)CCC(=O)N3)c1 | inactive: 4.49% | – |
| CCCS(=O)(=O)c1nc(S(=O)(=O)c2ccc(C)cc2)c(N(C)Cc2ccccc2)s1 | inactive: -23.9% | – |
| Cc1ccccc1C(=O)Nc1nnc2n1CCS2 | inactive: 6.33% | – |
| CCN1C(=O)c2ccccc2S(=O)c2ccc(C(=O)NCc3ccc(OC)cc3)cc21 (stereo not drawn) | inactive: 1.05% | – |
| Cc1ccc(C)c2sc(NC(=O)c3ccc(S(=O)(=O)N4CCC(C)CC4)cc3)nc12 | inactive: -14.9% | – |
| O=C(CSc1nc2cc(C(=O)NC3CCCC3)ccc2c(=O)n1CC1CCCO1)c1cccc(Cl)c1 (stereo not drawn) | – | active: 28.2 µM |
| COc1ccccc1NC(=O)CSc1nnc(N)s1 | inactive: -1.49% | – |
| COc1ccc(OC)c(CCNC(=O)CS(=O)(=O)Cc2nc(-c3cccc(Cl)c3)oc2C)c1 | inactive: -1.99% | – |
| COc1ccc(CCNc2oc(/C=C/c3cc(OC)c(OC)c(OC)c3)nc2C#N)cc1OC | inactive: -18.3% | – |
| Cc1ccc(Sc2c(C)nn(-c3ccccc3)c2OC(=O)C(C)(C)C)cc1 | inactive: -17.3% | – |
| CCOc1ccc(NC(=O)CC2C(=O)N(c3ccc(F)cc3)C(=O)N2Cc2ccc(OC)c(OC)c2)cc1 (stereo not drawn) | inactive: 10.8% | – |
| COc1ccc(OC)c(NS(=O)(=O)c2cc3c(cc2Cl)N(C(C)=O)CCO3)c1 | inactive: -4.21% | – |

| SMILES | activity change, negative = cytotoxicity | Potency |
| --- | --- | --- |
| COC(=O)c1c(NC(=O)C(C)Oc2ccc(Cl)c(C)c2)sc(C)c1C (stereo not drawn) | inactive: 0.0514% | – |
| CCc1ccc(CNC(=O)c2cc(=O)[nH]c3ccc(S(=O)(=O)N4CCCCC4)cc23)cc1 | inactive: 13.6% | – |
| Cc1c(Cl)ccc2sc(N3CCN(C(=O)C(C)C)CC3)nc12 | inactive: -24.4% | – |
| CCOC(=O)c1c(C)oc2nc(C)nc(Nc3ccc(C)c(Cl)c3)c12 | inactive: -0.252% | – |
| CCOC(=O)c1c(NC(=O)c2cc(C(C)C)on2)sc(C(C)=O)c1C | inactive: 5.03% | – |
| CCOc1ccccc1NC(=O)NCc1ccc2c(c1)CCN2C(=O)c1ccccc1 | inactive: -27.1% | – |
| COc1ccc(/C=C\c2onc(C)c2S(=O)(=O)N2CCC(C(=O)Nc3ccc(F)cc3F)CC2)cc1 | inactive: 8.31% | – |
| Cc1ccc(-c2nc3nc(C)cc(N4CCN(c5cccc(C)c5C)CC4)n3n2)cc1 | inactive: -4.46% | – |
| CN(C)c1ccc(CN(Cc2ccco2)C(=O)c2ccc(C(C)(C)C)cc2)cc1 | inactive: -15% | – |
| Cc1oc(-c2cccc(Cl)c2)nc1CSc1nncn2c1cc1occc12 | inactive: 6.88% | – |
| CN(Cc1ccccc1)C(=O)c1cn(C)c2ccc(S(=O)(=O)N3CCCCC3)cc2c1=O | inactive: -12.6% | – |
| COc1cccc(OCc2nc3ccccc3n2CCOc2ccc(C)cc2)c1 | inactive: 5.6% | – |
| COc1cccc(CNC(=O)c2cc(C)nc3c2c(C)nn3-c2ccc(C)cc2)c1 | inactive: 0.803% | – |
| COc1ccc(OC)c(NC(=O)CSc2ccc(-c3cccs3)nn2)c1 | inactive: 3.96% | – |
| COc1cc(OC)c(NC(=O)C2CCN(S(=O)(=O)c3c(C)noc3/C=C/c3c(C)cc(C)cc3C)CC2)cc1Cl | inactive: 1.4% | – |
| CC12CN3CC(c4ccccc4)(CN(C1)C3c1ccc(O)cc1)C2=O (stereo not drawn) | inactive: 5.01% | – |
| Cn1c(=O)oc2cc(S(=O)(=O)NC(Cc3ccccc3)C(=O)Nc3ccc(F)cc3)ccc21 (stereo not drawn) | inactive: -8.05% | – |
| CCn1c(C(=O)NCc2ccc(F)cc2)cc2oc3ccccc3c21 | inactive: 0.433% | – |
| CCOc1ccc(C(=O)NCc2ccc3c(c2)CCN3C(=O)c2ccc(Cl)cc2)cc1 | inactive: -1.97% | – |
| O=C(NC1CC(=O)N(c2cccc(F)c2)C1)c1cccs1 (stereo not drawn) | inactive: 1.7% | – |
| Cc1cccc(-n2ncc(C(=O)N3CCOCC3)c2C2CCN(C(=O)OC(C)(C)C)CC2)c1 | inactive: 21.4% | – |
| CC(C)N(C(=O)Cn1cc(SCC(=O)Nc2ccccc2F)c2ccccc21)C(C)C | inactive: -3.05% | – |
| Cc1ccc(CCNS(=O)(=O)c2cc(-c3cc(C)no3)ccc2C)cc1 | inactive: -4.01% | – |
| CCc1ccc(NC(=O)c2ccc(CN3CC(=O)N4CCCCC4C3=O)cc2)cc1 (stereo not drawn) | inactive: -24.3% | – |
